The other results are listed elsewhere or left out. The list includes weakly bound sequences.

This test deals with T1, MBP-FoxP3dN (UniProt Q99JB6).
T1 sequence: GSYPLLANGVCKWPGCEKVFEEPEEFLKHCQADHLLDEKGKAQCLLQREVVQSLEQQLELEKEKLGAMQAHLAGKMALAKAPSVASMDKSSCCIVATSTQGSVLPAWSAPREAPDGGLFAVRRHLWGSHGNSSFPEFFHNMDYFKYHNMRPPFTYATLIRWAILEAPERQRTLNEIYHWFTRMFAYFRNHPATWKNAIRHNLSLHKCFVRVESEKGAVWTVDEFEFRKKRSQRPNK
The experiment in a line: PD-seq (MBP pull-down with sequencing). As to conditions: 20 mM Tris-HCl pH 7.5, 100 mM NaCl, 1.5 mM MgCl2, 0.4 uM protein, 0.1 uM dsDNA library, 30 min, room temperature, amylose pull-down; high values mean tight binding; double strand, one strand shown.
Consider “GATGATTGTTCTCCCAGCTGATGAATTGGTTACGTCGAGTAAACAAATTTTCCTAATCTTTCTGTTCAAGCGCCATCTAC”, for which the binding signal (RPM ratio (pull-down/input)) is 0.698. In the case of “GATGATTGTTCTCCCAGCTGATGAATTCATACACTCGAGTAAACAAATTTTCCTAATCTTTCTGTTCAAGCGCCATCTAC” it was 0.669; in that of “GATGATTGTTCTCCCAGCTGATGAATTAGCATATTCGAGTAAACAAATTTTCCTAATCTTTCTGTTCAAGCGCCATCTAC”, 1.09.

For “GATGATTGTTCTCCCAGCTGATGAATTAGGATGGTCGAGTAAACAAATTTTCCTAATCTTTCTGTTCAAGCGCCATCTAC”, the binding signal (RPM ratio (pull-down/input)) came to 0.492. “GATGATTGTTCTCCCAGCTGATGAATTCACGGACTCGAGTAAACAAATTTTCCTAATCTTTCTGTTCAAGCGCCATCTAC”: the binding signal (RPM ratio (pull-down/input)) is 0.234. The value for “GATGATTGTTCTCCCAGCTGATGAATTGGCGATTTCGAGTAAACAAATTTTCCTAATCTTTCTGTTCAAGCGCCATCTAC” was 0.595; that for “GATGATTGTTCTCCCAGCTGATGAATTGATCACATCGAGTAAACAAATTTTCCTAATCTTTCTGTTCAAGCGCCATCTAC” was 0.76. Consider “GATGATTGTTCTCCCAGCTGATGAATTACACCTGTCGAGTAAACAAATTTTCCTAATCTTTCTGTTCAAGCGCCATCTAC”, for which the binding signal (RPM ratio (pull-down/input)) was found to be 0.561. In the case of “GATGATTGTTCTCCCAGCTGATGAATTACCATTCTCGAGTAAACAAATTTTCCTAATCTTTCTGTTCAAGCGCCATCTAC” it was 0.496. Consider “GATGATTGTTCTCCCAGCTGATGAATTGCGTGTCTCGAGTAAACAAATTTTCCTAATCTTTCTGTTCAAGCGCCATCTAC”, for which the binding signal (RPM ratio (pull-down/input)) is 2.08. Consider “GATGATTGTTCTCCCAGCTGATGAATTCACTTCGTCGAGTAAACAAATTTTCCTAATCTTTCTGTTCAAGCGCCATCTAC”, for which the binding signal (RPM ratio (pull-down/input)) worked out at 0.349. The value for “GATGATTGTTCTCCCAGCTGATGAATTTCAACAGTCGAGTAAACAAATTTTCCTAATCTTTCTGTTCAAGCGCCATCTAC” was 0.3.

“GATGATTGTTCTCCCAGCTGATGAATTTTTGAGATCGAGTAAACAAATTTTCCTAATCTTTCTGTTCAAGCGCCATCTAC”: the binding signal (RPM ratio (pull-down/input)) is 0.234. In the case of “GATGATTGTTCTCCCAGCTGATGAATTTTTTCGCTCGAGTAAACAAATTTTCCTAATCTTTCTGTTCAAGCGCCATCTAC” it was 0.212; in that of “GATGATTGTTCTCCCAGCTGATGAATTCGATGCATCGAGTAAACAAATTTTCCTAATCTTTCTGTTCAAGCGCCATCTAC”, 1.84; in that of “GATGATTGTTCTCCCAGCTGATGAATTGGGTTTCTCGAGTAAACAAATTTTCCTAATCTTTCTGTTCAAGCGCCATCTAC”, 0.917. As to “GATGATTGTTCTCCCAGCTGATGAATTTAGGGGATCGAGTAAACAAATTTTCCTAATCTTTCTGTTCAAGCGCCATCTAC”, the binding signal (RPM ratio (pull-down/input)) was 0.414. Take “GATGATTGTTCTCCCAGCTGATGAATTTGCGTGTTCGAGTAAACAAATTTTCCTAATCTTTCTGTTCAAGCGCCATCTAC”: the binding signal (RPM ratio (pull-down/input)) stood at 3.79. The value for “GATGATTGTTCTCCCAGCTGATGAATTTCGCTGATCGAGTAAACAAATTTTCCTAATCTTTCTGTTCAAGCGCCATCTAC” was 0.541. With “GATGATTGTTCTCCCAGCTGATGAATTTCTCTGATCGAGTAAACAAATTTTCCTAATCTTTCTGTTCAAGCGCCATCTAC”, the binding signal (RPM ratio (pull-down/input)) stood at 0.198. The value for “GATGATTGTTCTCCCAGCTGATGAATTCGCCGAATCGAGTAAACAAATTTTCCTAATCTTTCTGTTCAAGCGCCATCTAC” was 0.206. In the case of “GATGATTGTTCTCCCAGCTGATGAATTTCGCAGCTCGAGTAAACAAATTTTCCTAATCTTTCTGTTCAAGCGCCATCTAC” it was 2.01; in that of “GATGATTGTTCTCCCAGCTGATGAATTACGCGTCTCGAGTAAACAAATTTTCCTAATCTTTCTGTTCAAGCGCCATCTAC”, 4.2; in that of “GATGATTGTTCTCCCAGCTGATGAATTTCCATGGTCGAGTAAACAAATTTTCCTAATCTTTCTGTTCAAGCGCCATCTAC”, 0.263. In the case of “GATGATTGTTCTCCCAGCTGATGAATTACATCTGTCGAGTAAACAAATTTTCCTAATCTTTCTGTTCAAGCGCCATCTAC” it was 0.584; in that of “GATGATTGTTCTCCCAGCTGATGAATTGTTTGCCTCGAGTAAACAAATTTTCCTAATCTTTCTGTTCAAGCGCCATCTAC”, 5.67; in that of “GATGATTGTTCTCCCAGCTGATGAATTCGCCAATTCGAGTAAACAAATTTTCCTAATCTTTCTGTTCAAGCGCCATCTAC”, 0.326. Turning to “GATGATTGTTCTCCCAGCTGATGAATTTGACGGCTCGAGTAAACAAATTTTCCTAATCTTTCTGTTCAAGCGCCATCTAC”, the binding signal (RPM ratio (pull-down/input)) was determined as 0.334. In the case of “GATGATTGTTCTCCCAGCTGATGAATTGCATAGCTCGAGTAAACAAATTTTCCTAATCTTTCTGTTCAAGCGCCATCTAC” it was 0.698; in that of “GATGATTGTTCTCCCAGCTGATGAATTGGCGTTCTCGAGTAAACAAATTTTCCTAATCTTTCTGTTCAAGCGCCATCTAC”, 1.09; in that of “GATGATTGTTCTCCCAGCTGATGAATTGATGTGTTCGAGTAAACAAATTTTCCTAATCTTTCTGTTCAAGCGCCATCTAC”, 1.66. “GATGATTGTTCTCCCAGCTGATGAATTCGCACTTTCGAGTAAACAAATTTTCCTAATCTTTCTGTTCAAGCGCCATCTAC”: the binding signal (RPM ratio (pull-down/input)) stood at 0.446. In the case of “GATGATTGTTCTCCCAGCTGATGAATTGTTGAAGTCGAGTAAACAAATTTTCCTAATCTTTCTGTTCAAGCGCCATCTAC” it was 0.394. As for “GATGATTGTTCTCCCAGCTGATGAATTTTACCACTCGAGTAAACAAATTTTCCTAATCTTTCTGTTCAAGCGCCATCTAC”, the binding signal (RPM ratio (pull-down/input)) stood at 0.394. In the case of “GATGATTGTTCTCCCAGCTGATGAATTCCGCCGCTCGAGTAAACAAATTTTCCTAATCTTTCTGTTCAAGCGCCATCTAC” it was 2.27; in that of “GATGATTGTTCTCCCAGCTGATGAATTAAATTCCTCGAGTAAACAAATTTTCCTAATCTTTCTGTTCAAGCGCCATCTAC”, 0.381. The value for “GATGATTGTTCTCCCAGCTGATGAATTTGGCTGTTCGAGTAAACAAATTTTCCTAATCTTTCTGTTCAAGCGCCATCTAC” was 1.17. The value for “GATGATTGTTCTCCCAGCTGATGAATTATGAACGTCGAGTAAACAAATTTTCCTAATCTTTCTGTTCAAGCGCCATCTAC” was 0.433; that for “GATGATTGTTCTCCCAGCTGATGAATTATCAGGGTCGAGTAAACAAATTTTCCTAATCTTTCTGTTCAAGCGCCATCTAC” was 0.24; that for “GATGATTGTTCTCCCAGCTGATGAATTCGGCCTTTCGAGTAAACAAATTTTCCTAATCTTTCTGTTCAAGCGCCATCTAC” was 4.13.

With “GATGATTGTTCTCCCAGCTGATGAATTCAATAAGTCGAGTAAACAAATTTTCCTAATCTTTCTGTTCAAGCGCCATCTAC”, the binding signal (RPM ratio (pull-down/input)) stood at 0.244.

As to “GATGATTGTTCTCCCAGCTGATGAATTGTCTTAATCGAGTAAACAAATTTTCCTAATCTTTCTGTTCAAGCGCCATCTAC”, the binding signal (RPM ratio (pull-down/input)) was found to be 0.358.

With “GATGATTGTTCTCCCAGCTGATGAATTAAAAAACTCGAGTAAACAAATTTTCCTAATCTTTCTGTTCAAGCGCCATCTAC”, the binding signal (RPM ratio (pull-down/input)) turned out to be 0.235. Take “GATGATTGTTCTCCCAGCTGATGAATTCCCACCGTCGAGTAAACAAATTTTCCTAATCTTTCTGTTCAAGCGCCATCTAC”: the binding signal (RPM ratio (pull-down/input)) worked out at 0.235. For the sequence “GATGATTGTTCTCCCAGCTGATGAATTTCGATACTCGAGTAAACAAATTTTCCTAATCTTTCTGTTCAAGCGCCATCTAC”, the binding signal (RPM ratio (pull-down/input)) was 0.835.

For the sequence “GATGATTGTTCTCCCAGCTGATGAATTCGGTCAGTCGAGTAAACAAATTTTCCTAATCTTTCTGTTCAAGCGCCATCTAC”, the binding signal (RPM ratio (pull-down/input)) came out at 0.269. On to “GATGATTGTTCTCCCAGCTGATGAATTCGGGAACTCGAGTAAACAAATTTTCCTAATCTTTCTGTTCAAGCGCCATCTAC”, for which the binding signal (RPM ratio (pull-down/input)) was 0.208. The value for “GATGATTGTTCTCCCAGCTGATGAATTGACCCAATCGAGTAAACAAATTTTCCTAATCTTTCTGTTCAAGCGCCATCTAC” was 0.374. The value for “GATGATTGTTCTCCCAGCTGATGAATTTAGAGCCTCGAGTAAACAAATTTTCCTAATCTTTCTGTTCAAGCGCCATCTAC” was 0.551; that for “GATGATTGTTCTCCCAGCTGATGAATTTCAAGCCTCGAGTAAACAAATTTTCCTAATCTTTCTGTTCAAGCGCCATCTAC” was 0.376; that for “GATGATTGTTCTCCCAGCTGATGAATTTTTATTATCGAGTAAACAAATTTTCCTAATCTTTCTGTTCAAGCGCCATCTAC” was 0.779. “GATGATTGTTCTCCCAGCTGATGAATTTTGCCGGTCGAGTAAACAAATTTTCCTAATCTTTCTGTTCAAGCGCCATCTAC”: the binding signal (RPM ratio (pull-down/input)) is 0.938. With “GATGATTGTTCTCCCAGCTGATGAATTCCATATTTCGAGTAAACAAATTTTCCTAATCTTTCTGTTCAAGCGCCATCTAC”, the binding signal (RPM ratio (pull-down/input)) was 0.551. The value for “GATGATTGTTCTCCCAGCTGATGAATTCTGACAGTCGAGTAAACAAATTTTCCTAATCTTTCTGTTCAAGCGCCATCTAC” was 0.458. The value for “GATGATTGTTCTCCCAGCTGATGAATTAGAAGGATCGAGTAAACAAATTTTCCTAATCTTTCTGTTCAAGCGCCATCTAC” was 0.225; that for “GATGATTGTTCTCCCAGCTGATGAATTCCACGTATCGAGTAAACAAATTTTCCTAATCTTTCTGTTCAAGCGCCATCTAC” was 0.533. Turning to “GATGATTGTTCTCCCAGCTGATGAATTAACGAACTCGAGTAAACAAATTTTCCTAATCTTTCTGTTCAAGCGCCATCTAC”, the binding signal (RPM ratio (pull-down/input)) was 0.224.

Regarding “GATGATTGTTCTCCCAGCTGATGAATTGCGGTAGTCGAGTAAACAAATTTTCCTAATCTTTCTGTTCAAGCGCCATCTAC”, the binding signal (RPM ratio (pull-down/input)) came out at 0.763. The value for “GATGATTGTTCTCCCAGCTGATGAATTTTCTGTCTCGAGTAAACAAATTTTCCTAATCTTTCTGTTCAAGCGCCATCTAC” was 0.253. The value for “GATGATTGTTCTCCCAGCTGATGAATTAGTCACTTCGAGTAAACAAATTTTCCTAATCTTTCTGTTCAAGCGCCATCTAC” was 1.66. The value for “GATGATTGTTCTCCCAGCTGATGAATTTAAGTGATCGAGTAAACAAATTTTCCTAATCTTTCTGTTCAAGCGCCATCTAC” was 0.459; that for “GATGATTGTTCTCCCAGCTGATGAATTGCGGTCTTCGAGTAAACAAATTTTCCTAATCTTTCTGTTCAAGCGCCATCTAC” was 0.807. Consider “GATGATTGTTCTCCCAGCTGATGAATTGCCAAATTCGAGTAAACAAATTTTCCTAATCTTTCTGTTCAAGCGCCATCTAC”, for which the binding signal (RPM ratio (pull-down/input)) was 0.453.

Values taken from PMC12820563.
